Test results published in PubChem BioAssay AID488969 (Vanderbilt High Throughput Screening Facility, 2010).
Whole data set: some 110,000 compounds, median “z-score” near -0.1, cut for the highest 2% near 2. Some of the results follow. Active and inactive are the calls of the source.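 How the source made its calls: active means z-score in the third read window above 3 or below -3; inactive means the rest.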

The compounds below were run against Metabotropic glutamate receptor 8 (Rattus norvegicus) (UniProt P70579) (assay: mGluR8 Gi/Go-coupled signaling modulation – cell-based, rat, thallium flux, HTS, primary screen (AID 488969)). Conditions: HEK293 rat mGluR8, GIRK (G protein-gated inwardly rectifying potassium channel) thallium flux, FluoZin2; at 10 µM; stronger effect = higher value; submaximal glutamate (EC20) added with thallium.
UniProt P70579, sequence (P70579 whole entry, looked up): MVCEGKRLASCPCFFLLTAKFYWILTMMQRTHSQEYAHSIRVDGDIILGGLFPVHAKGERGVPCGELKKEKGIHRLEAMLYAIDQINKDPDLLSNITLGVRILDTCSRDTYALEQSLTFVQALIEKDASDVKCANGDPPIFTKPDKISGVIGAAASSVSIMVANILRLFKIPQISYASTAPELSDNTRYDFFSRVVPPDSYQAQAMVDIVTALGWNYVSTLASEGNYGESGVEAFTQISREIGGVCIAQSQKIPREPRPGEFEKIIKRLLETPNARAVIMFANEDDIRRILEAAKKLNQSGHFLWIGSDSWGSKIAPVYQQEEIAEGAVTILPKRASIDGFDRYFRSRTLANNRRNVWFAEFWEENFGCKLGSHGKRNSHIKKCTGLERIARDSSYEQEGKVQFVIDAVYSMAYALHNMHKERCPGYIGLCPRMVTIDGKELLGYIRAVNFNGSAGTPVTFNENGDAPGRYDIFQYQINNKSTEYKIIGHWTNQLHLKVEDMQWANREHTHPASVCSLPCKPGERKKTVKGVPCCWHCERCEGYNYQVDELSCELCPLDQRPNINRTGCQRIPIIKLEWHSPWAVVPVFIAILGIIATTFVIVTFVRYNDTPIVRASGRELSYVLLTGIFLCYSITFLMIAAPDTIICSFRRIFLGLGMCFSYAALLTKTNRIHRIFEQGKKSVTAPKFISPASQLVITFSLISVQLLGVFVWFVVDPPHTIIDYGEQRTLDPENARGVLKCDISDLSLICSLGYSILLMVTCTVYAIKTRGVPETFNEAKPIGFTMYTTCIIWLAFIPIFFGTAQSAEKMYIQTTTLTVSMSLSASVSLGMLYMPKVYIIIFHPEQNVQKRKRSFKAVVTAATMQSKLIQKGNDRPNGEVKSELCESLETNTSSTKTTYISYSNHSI

Row | SMILES | z-score
1 | Cc1c(NC(=O)C2CCCN(S(=O)(=O)c3cnc[nH]3)C2)c(=O)n(-c2ccccc2)n1C (centres undefined) | 1.18
2 | CCCS(=O)(=O)NCc1cn2c(C)csc2n1 | 2.02
3 | CCC(C)C(=O)Nc1cc(OC)c(OC)cc1C(=O)O (centres undefined) | -0.0611
4 | O=c1c(-c2ccccc2)nc(-c2ccccc2)cn1O | 2.86
5 | O=C(OCC(=O)N1CCN(c2ccccc2)CC1)c1ccc2ccccc2n1 | -0.0809
6 | CN1CCN(C(=O)C2C3C=CC(C3)C2C(=O)O)CC1 (centres undefined) | -0.159
7 | O=S(=O)(NC1CCCC1)c1ccccc1Cl | 0.491
8 | O=S(=O)(c1ccccc1F)N(Cc1ccco1)Cc1nnc(-c2ccccc2Br)o1 | 0.682
9 | CNC(=S)NNC(=O)Cc1ccccc1 | -0.0522
10 | Cc1c(Br)c([N+](=O)[O-])nn1CC(=O)NCc1cccnc1 | -0.135
11 | CCc1ccc(/C=N/NC(=O)c2ccc(OC3CCCC3)cc2)s1 | 1.59
12 | CC(=O)C1=C(C)NC(SCC(=O)Nc2nc3ccccc3s2)=C(C#N)C1c1ccc(Cl)cc1 (centres undefined) | -0.132
13 | O=C(Oc1ccc(-c2nnco2)cc1)N1CCCCC1 | -0.314
14 | CNC(=S)N1CCN(c2ccc(OC)cc2)CC1 | active: 8.68
15 | CCNC(=S)N/N=C/c1cc(C)ccc1C | 2.43
16 | CCCOc1ccc(-c2nc(OCC)c3ccccc3n2)cc1 | 0.305
17 | C=C(C)CSc1nc2c(c(=O)[nH]c(=O)n2C)n1CCC(C)C | -0.247
18 | CCCc1nc2ccccc2c(C(=O)O)c1CC | 0.148
19 | CN1CCN(c2cc(=O)n(Cc3ccc(F)cc3)c(=O)[nH]2)CC1 | 0.313
20 | O=C(Cn1c2[n+](c3ccc(C(F)(F)F)cc31)CCCCC2)Nc1ccccc1 | 1.55
21 | O=C(CCCC(=O)N(CC(=O)NC1CCCCC1)CC1CCCO1)Nc1ccccn1 (centres undefined) | 0.155
22 | CCn1c(CNc2ccc(Cl)cc2)nnc1SCCN1CCCCC1 | -0.013
23 | O=c1nc(N2CCCC2)nc(Nc2ccccc2)[nH]1 | -0.464

Row | SMILES | z-score
24 | CCN1CCN(c2nc(N)c([N+](=O)[O-])c(Nc3ccc(C)c(C)c3)n2)CC1 | -0.561
25 | COC(=O)c1ccccc1NC(=S)NC(NC(=O)c1ccco1)C(Cl)(Cl)Cl (centres undefined) | active: 15.3
26 | CCCSc1nc(C)c(CC(=O)OCC)c(=O)[nH]1 | -0.322
27 | CC1=NN(C(=O)c2csc(C)c2C)C(O)(C(F)(F)F)C1 (centres undefined) | -0.282
28 | COc1cccc(N=Nc2c(N)[nH]n3c(=O)cc(-c4ccccc4)nc23)c1 | 0.0125
29 | Cc1cc(C)c(NC(=O)CN2CCN(C)CC2)c(C)c1 | -0.0797
30 | Cc1ccsc1C(=O)NNC(=S)NCC(C)C | -0.212
31 | O=C(c1ccccc1)c1c(O)cc(-c2ccccc2)oc1=O | 0.0942
32 | Cc1ccsc1C(=O)N(c1nc2ccccc2s1)c1c(C)cccc1C | 0.0693
33 | O=C(Nc1ccc(S(=O)(=O)N2CCCC2)cc1)c1ccc2c(=O)n3c(nc2c1)CCCCC3 | 0.0927
34 | CC1C(c2ccccc2)=[N+]([O-])C2(CCCCC2)N1O (centres undefined) | 0.201
35 | O=C(NCc1ccccn1)C1CCCN(S(=O)(=O)c2ccc(Br)cc2)C1 (centres undefined) | 0.025
36 | Cc1ccc(C(=O)COc2ccccc2C(=O)Nc2ccccc2)cc1 | -0.138
37 | CC(C)(C)N1CC2(c3ccccc3)CN(C(C)(C)C)CC(c3ccccc3)(C1)C2=O | 1.19
38 | COc1ccc(CCNC(=O)c2cnn(-c3ccc(C)c(C)c3)c2NC(=O)c2ccco2)cc1OC | -0.163
39 | COc1ccccc1-n1cnnc1SCC(=O)Nc1ncc(Cl)cc1Cl | -1.01
40 | Cc1ccc(-c2noc(CN3CCOCC3)n2)cc1 | 0.283
41 | C/C(=N/NC(=O)c1cc2ccccc2cc1O)C1C(=O)c2ccccc2C1=O | -0.443
42 | CC(=O)Nc1ccc(S(=O)(=O)NCC(C)NS(=O)(=O)c2ccc(NC(C)=O)cc2)cc1 (centres undefined) | 0.018
43 | COc1ccc(CNC(=O)COC(=O)CCCOc2ccc(Cl)cc2Cl)cc1 | -0.254
44 | Cc1ccnn1CC(=O)N/N=C/c1ccco1 | -0.00195
45 | CC(C)(C)OC(=O)N[C@@H](Cc1ccccc1)c1nnc(SCC(=O)O)o1 | 0.308
46 | COc1ccc(/C=N/Nc2cc(OC)ncn2)cc1 | -0.812

Row | SMILES | z-score
47 | CCOC(=O)NC1(NCc2ccccc2)Oc2ccccc2O1 | 0.198
48 | CCOc1ccc2nc3c(cc2c1)CN(CCOC)C(=NCCOC)S3 | -0.836
49 | CCOc1ccc(-c2cn(-c3ccc(OC)cc3)c(SC)n2)cc1 | -0.0709
50 | Cn1c(SCC(=O)O)nc2ccccc2c1=O | 0.248
51 | O=C(N1CCOCC1)C12CC3CC(C1)CC(c1ccccc1)(C3)C2 | -0.0428
52 | Cc1ccn2c(/C=N/OCc3cccc(F)c3)c(-c3ccc(Cl)cc3)nc2c1 | 0.076
53 | COc1ccc(Nc2nc(N)nc(CSCCO)n2)cc1 | 0.378
54 | CCc1ccc(CCC(=O)Nc2ccc(C)cc2C)o1 | 0.169
55 | Cc1ccc(NC(=O)c2cc(S(=O)(=O)N3CCCCC3)cs2)cc1 | -0.205
56 | CCOC(=O)Cn1nc(CC)c2ccccc2c1=O | -0.286
57 | CCOC(=O)C1=C(C(F)(F)F)Nc2ncnn2C1c1cc(OC)c(OC)cc1OC (centres undefined) | 0.305
58 | c1csc(C2Nc3cccc4cccc(c34)N2)c1 | -0.272
59 | CC(=O)Nc1ccc(OCC(O)CN2C(C)CCCC2C)cc1 (centres undefined) | -0.417
60 | CC(C)Oc1ccc(CNC2CCOC(C)(C)C2)cc1 (centres undefined) | -0.704
61 | CC1CN(CC(O)COc2ccccc2C(C)(C)C)CC(C)O1 (centres undefined) | -0.187
62 | COc1ccc(OC)c(C2C(C(C)=O)=C(O)C(=O)N2c2ccc(O)cc2)c1 (centres undefined) | 0.337
63 | CCOC(=O)c1sc(NC(=O)CSc2nnc(Cc3ccccc3)o2)c(C(=O)OCC)c1C | 0.315
64 | CC(=O)c1ccc(S(=O)(=O)N2CCN(c3nc4c(C)c(C)ccc4cc3C#N)CC2)cc1 | -0.378
65 | CCc1cc2c(N[C@@H](Cc3c[nH]c4ccccc34)C(=O)O)ncnc2s1 | -0.16
66 | COc1cc2c(C(=O)N3CCN(c4cccc(Cl)c4)CC3)cn(C)c(=O)c2cc1OC | -0.848
67 | CCOC(=O)c1sc(NS(=O)(=O)c2ccccc2)nc1C | -0.12
68 | Cc1nccn1CC(O)Cn1c2ccccc2c2ccccc21 (centres undefined) | 2
69 | O=c1c(Cl)c(NCCCO)cnn1-c1nc2ccccc2[nH]1 | 0.128

Row | SMILES | z-score
70 | Cc1ccc(-c2cc(C(=O)NCCCN3CCOCC3)no2)cc1 | -0.133
71 | CCOC(=O)/C(C#N)=N\Nc1ccc(S(=O)(=O)Nc2nc(C)cc(C)n2)cc1 | -0.0878
72 | CCn1cc(C(=O)OCC(=O)c2cc(C)n(-c3ccccc3F)c2C)c(=O)c2ccc(C)nc21 | -0.711
73 | COc1cc(C(=O)NCCN2CCCC2)cc(OC)c1OC | -0.00934
74 | CC1CCCN(C(=O)c2cccc(S(=O)(=O)Nc3cc(C(F)(F)F)ccc3Cl)c2)C1 (centres undefined) | -0.43
75 | O=[N+]([O-])c1ccc(N/N=C\c2ccccc2OCc2ccccc2)cc1 | 0.105
76 | NC(=O)CS(=O)(=O)c1nc2ccccc2n1Cc1ccccc1F | 0.0397
77 | CCCC1(C(=O)OCC)NC(c2cc(OC)c(OC)c(OC)c2)C2C(=O)N(CC)C(=O)C21 (centres undefined) | -0.129
78 | O=C1CCCCCN1Sc1ccccc1 | -1.11
79 | COc1cccc(C(=O)Nc2cccc(OCC(=O)O)c2)c1 | -1.2
80 | CC(C)(C)c1ccc(C(=O)NC(=S)Nc2sc3c(c2C#N)CCC3)cc1 | -0.0657
81 | CCN1C(=O)NC2=C(C(=O)c3ccccc32)C1c1ccccc1F (centres undefined) | -0.323
82 | CN1CCN(CCCCC(=O)c2ccccc2)CC1 | -0.0889
83 | O=C(COC(=O)CNC(=O)C12CC3CC(CC(C3)C1)C2)Nc1ccccc1 | 1.89
84 | Cc1cc(C)cc(NC(=S)NCCN2CCOCC2)c1 | -0.112
85 | Nn1cc(-c2ccccc2)nc1SCC(=O)N1CCN(S(=O)(=O)c2ccccc2)CC1 | -0.317
86 | CCc1cccc(NS(=O)(=O)c2ccc3c(c2)oc(=O)n3C)c1 | 0.151
87 | COc1ccc(/C(N)=N/OC(=O)c2cccc([N+](=O)[O-])c2)cc1OC | 0.272
88 | Cc1nc2sc(C(c3ccc(F)cc3)N3CCOCC3)c(O)n2n1 (centres undefined) | 0.149
89 | CCOC(=O)N1CCN(CC(=O)Nc2ccc(C)c(Br)c2)CC1 | -0.241
90 | CC(C)(C)N(NC(=O)Nc1ccccc1)C(=O)c1ccccc1Cl | 0.107
91 | CSCCNC(C)=O | -0.316
92 | N#Cc1c2c(c(Nc3ccc(O)cc3)n3c1nc1ccccc13)CCC2 | 0.181

Row | SMILES | z-score
93 | C/C=C/C=N/Nc1nc(-c2ccc([N+](=O)[O-])cc2)cs1 | -0.273
94 | Nc1c(NCCCN2CCOCC2)c2ccccc2oc1=O | -0.3
95 | CCCCSc1nnc([C@@H]2CCCN2C(=O)OC(C)(C)C)o1 | 0.0915
96 | O=C(Nc1ccc(Cl)c(Cl)c1)Oc1ccc(NC(=O)c2ccco2)cc1 | -0.288
97 | O=S(=O)(NCc1csc(-c2cccnc2)n1)c1ccc2c(c1)OCCO2 | 2.01
98 | CCOC(=O)c1sc2nc(C)nc(SCC(=O)NC(C)CCc3ccccc3)c2c1C (centres undefined) | -0.115
99 | COc1ccc(-c2cc(C(=O)Nc3ccccc3SC)no2)cc1 | -0.29
100 | O=C(Nc1ccccc1NC(=O)NC1CCCCC1)NC1CCCCC1 | -1.04
101 | Cc1ccc(S(=O)(=O)N(C)c2c(C)ccc(S(=O)(=O)Nc3ccncc3)c2C)cc1 | -0.0477
102 | c1ccc(OCCOCCN2CCOCC2)cc1 | -0.145
103 | CC(=NCCc1ccccc1)C1=C(O)CCC1=O | -0.157
104 | CCOc1ccccc1OCc1nn2c(COc3ccccc3)nnc2s1 | -0.56
105 | CCCNC(=O)C1CCN(c2ccc(S(=O)(=O)N3CCOCC3)cc2Cl)CC1 | -0.0395
106 | N/C(=N\c1nc2c(c(=O)[nH]1)CCC2)Nc1ccccc1 | 0.214
107 | CC/C(O)=C(\C#N)c1nnc2n1CCCCC2 | 0.151
108 | Cc1nc2c(Br)cc(Br)cc2cc1O | -0.787
109 | Cc1ccc(-c2csc(NC(=O)c3ccc(-c4ccccc4)cc3)n2)o1 | 0.0391
110 | COc1cccc(-c2nc(Cc3ccc(OC)c(OC)c3)no2)c1 | -0.0987
111 | CO/C([O-])=N/c1c[n+](-c2ccc(Cl)cc2)no1 | 0.215
112 | COCCCNC(=O)c1cccc(NC(=O)c2ccccc2)c1 | -0.13
113 | CCC(CC)C(=O)Nc1ccc(Sc2ccc([N+](=O)[O-])cc2)cc1 | -0.22
114 | O=C(Cc1ccccc1)N/N=C/c1ccccc1F | 0.38
